In all, about 48,000 compounds went through this assay and about 120 (0.25%) were called active. Inconclusive results (about 4%) are left out. The call rests on the fitted dose curve; in most records, active means well fitted activation curve with a large enough effect; inconclusive means small, poorly fitted or top-dose-only effect, or another doubt; inactive means no such curve, though single readings can be large or run the other way. Some of the results follow.

These results are taken from PubChem BioAssay AID1508624 (National Center for Advancing Translational Sciences (NCATS), 2021).

The nature of the test: Primary qHTS for Identification of Small Molecule Activators of Huntingtin-Antisense Promoter Activity. Further: nearly all actives have a fitted effect of over 55% in size. As to conditions: HEK293 HTT-AS promoter firefly luciferase reporter (activity 0% = vehicle and -100% = no light), 24 h; series mostly up to 57.5 µM; activity change, positive = activation: at the top concentration. Put shortly:
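Firefly luciferase signal from promoter-reporter HEK293 cells was scaled between vehicle (0%) and zero RLU (-100%). Compounds were tested at final concentrations of up to 57.5 uM over 24 h at 37 degrees C. PTC124 at 50 uM final served as control inhibitor.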
(In general: Quantitative high-throughput screening tests each substance at several concentrations.)
Consider `COc1ccc(NC(=O)C2Cc3ccccc3N2C(=O)c2ccccc2)c(OC)c1` (stereo not drawn), for which the “activity change, positive = activation” value was inactive: -21.5%.
To `CCOc1ccccc1NC(=O)c1cc2c(Cl)nc3ccccc3c2s1` belongs inactive: -11%; to `CC(C)CCNC(=O)c1cccc(Nc2nc3ccccc3n3nnnc23)c1`, inactive: -40.8%; to `COc1ccc(Cl)cc1NC(=O)c1ccc2nc(Cc3ccccc3)oc2c1`, inactive: -18.8%.
To `Cc1ccc(NC(=O)c2cc(S(=O)(=O)NCCC3=CCCCC3)ccc2F)cc1F` belongs inactive: -89.8%; to `CCCC(=O)Nc1cc(C)c(O)c(-c2nc3ncccc3o2)c1`, inactive: -7.53%.
On to `Cc1cc(NC(=O)c2ccc(Br)o2)cc(-c2nc3ccccc3o2)c1O`, for which the “activity change, positive = activation” value was inactive: 5.38%.
Then `Cc1ccc(-n2nc(C(=O)N3CCN(c4cc(Cl)ccc4C)CC3)c(=O)n(C)c2=O)cc1`, with inactive: -21.4%; and `CCCCNC(=O)C1CCCN(Cc2nc(-c3ccc(Cl)cc3)oc2C)C1` (stereo not drawn), with inactive: -6.19%.
Then `CCc1ccc(C(=O)c2cn(CC(=O)Nc3ccc(F)c(F)c3)c3cc(OC)c(OC)cc3c2=O)cc1`, with inactive: -46.6%.
Then `Cc1ccc(Oc2c(C(F)(F)F)oc3c(CN4CCCCC4)c(O)ccc3c2=O)cc1`, with inactive: 0%.
As to `O=C(Nc1ccc(Cl)cc1)C1CCCN(S(=O)(=O)c2ccc3[nH]c(=O)ccc3c2)C1` (stereo not drawn), the “activity change, positive = activation” value is inactive: -25.6%.
With `Cc1cc(F)ccc1NC(=O)CCS(=O)(=O)c1ccc2c(c1)NC(=O)CO2`, the “activity change, positive = activation” value is inactive: -4.87%.
To `CCOC(=O)c1ccccc1NC(=O)CSc1cn(CC(=O)N2CCCCC2)c2ccccc12` belongs inactive: -5.15%; to `COc1cc(Cl)cn2c(-c3cccc(NC4CNC4)n3)cnc12`, inactive: -27.7%.
Then `Cc1nc2c(-c3ccccc3)c(C)nn2c(C)c1CCC(=O)NC(C)c1ccccc1` (stereo not drawn), with inactive: -13.5%.
As to `COc1cccc(CNC(=O)C2CCCN(S(=O)(=O)c3ccc4c(ccn4C)c3)C2)c1` (stereo not drawn), the “activity change, positive = activation” value is inactive: -10.6%.
To `CCC(C(=O)Nc1ccc(C(=O)OC)cc1)n1c(=O)c(-c2ccccc2NC(C)=O)nc2ccccc21` (stereo not drawn) belongs inactive: -42.2%.
Then `Nc1ccn([C@@H]2O[C@H](CO)[C@@H](O)C2O)c(=O)n1` (stereo partly drawn), with inactive: 3.78%; and `COc1cc(CN(C(=O)Nc2ccccc2)c2ccccn2)cc(OC)c1OC`, with inactive: 6.84%.
To `CCc1ccccc1NS(=O)(=O)c1ccc2[nH]cc(C(=O)N3CCCCC3)c(=O)c2c1` belongs inactive: -5.46%.
Take `CCOc1ccc(NC(=O)C(=O)NCCc2csc(-c3ccc(F)cc3)n2)cc1`: the “activity change, positive = activation” value was inactive: -2.26%.
As for `CCc1cccc(NC(=O)Nc2ccc3c(c2)N(C)C(=O)c2ccccc2S3)c1`, the “activity change, positive = activation” value was inactive: -38.3%.
On to `COc1ccc(NS(=O)(=O)c2cc3[nH]c(=O)c(=O)[nH]c3cc2C)cc1Cl`, for which the “activity change, positive = activation” value is inactive: -11%.
Then `CCC(=O)N1CCc2cc(Br)cc(S(=O)(=O)CCC(=O)NCCc3ccc(OC)c(OC)c3)c21`, with inactive: 2.55%; and `CCOc1ccc(/C=C/c2nc(C#N)c(N3CCN(c4ccc(OC)cc4)CC3)o2)cc1`, with inactive: -7.32%; and `Cn1cc(S(=O)(=O)N2CCCCCC2)cc1C(=O)N1CCN(c2ccc(F)cc2)CC1`, with inactive: -20.1%.
To `Cc1ccc(NC(=O)Cc2c(C(=O)O)c(C)cn2C)cc1Cl` belongs inactive: -3.88%; to `CC(C)OCCCn1c(SCc2ccccc2C#N)nc2c(sc3ccccc32)c1=O`, inactive: 1.36%; to `CCN(CC)CC(C)CNC(=O)CN1C(=O)CSc2ccc(S(=O)(=O)N3CCOCC3)cc21` (stereo not drawn), inactive: -4.64%.
Then `CN(C(=O)C1CCCN(c2ncnc3c2nc2n3CCCCC2)C1)c1ccccc1F` (stereo not drawn), with inactive: -31.9%; and `CCN(CC)CCOc1ccc2c(c1)C(=O)c1cc(OCCN(CC)CC)ccc1-2`, with inactive: -14.4%; and `COc1cc(OC)c(NC(=O)CN2C(=O)CCn3nc(-c4cccn4C)cc32)cc1Cl`, with inactive: -0.494%.
Take `COc1cc(NC(=O)CCn2c(-c3ccccc3)cc(C(C)=O)c2C)cc(OC)c1`: the “activity change, positive = activation” value was inactive: -24.8%.
Consider `COc1ccc(NC(=O)C(NS(=O)(=O)c2ccc3c(c2)CCCC(=O)N3)C(C)C)c(OC)c1` (stereo not drawn), for which the “activity change, positive = activation” value is inactive: -10.4%.
To `Cc1cc(C)c(NC(=O)CSc2ccnc(=O)[nH]2)c(C)c1` belongs inactive: -8.23%; to `Cc1c(Cl)cccc1NC(=O)CSc1ncnc2c1sc1ccccc12`, inactive: -8.71%.
Then `Cc1cccc(CNC(=O)c2oc3c(c2C)-c2nn(Cc4ccccc4Cl)cc2CC3)c1`, with inactive: -28%; and `Cc1cc(OCC(=O)Nc2ccc(-c3nc4cc(Cl)ccc4o3)cc2)cc(C)c1Cl`, with inactive: 7.43%.
Then `NS(=O)(=O)c1ccc(CCNC(=O)C2COc3ccccc3C2)cc1` (stereo not drawn), with inactive: 8.79%.
`CCc1ccc(C2CC(=O)c3c([nH]c(C(=O)OCC4CCCCC4)c3C)C2)cc1` (stereo not drawn): the “activity change, positive = activation” value is inactive: -13.1%.
To `Cc1ccc(Cn2c(=O)c3cccnc3n(CC(=O)Nc3cccc(C(F)(F)F)c3)c2=O)cc1` belongs inactive: -38.9%.
Regarding `O=C(COc1ccccc1)NCc1ccc2c(c1)CCN2C(=O)c1ccc(F)cc1`, the “activity change, positive = activation” value was inactive: -7.16%.
Then `Cc1c(Cl)cccc1Nc1nc2ccc(C(=O)c3ccccc3)cc2n2cnnc12`, with inactive: -24.5%.
On to `Cc1ccc(CNC(=O)CN2C(=O)C3(SCC(=O)N3c3ccc(F)cc3)c3ccccc32)cc1` (stereo not drawn), for which the “activity change, positive = activation” value is inactive: -11.5%.
To `Cc1ccc(NC(=O)Cn2c(-c3cncs3)nc3ccccc32)c(Br)c1` belongs inactive: -19.2%.
Then `CC(=O)N1CCc2c(sc3c2c(=O)n(Cc2ccccc2)c(=O)n3Cc2cc(C)ccc2C)C1`, with inactive: -12.9%; and `COc1ccc2c(c1)Cc1sc(NC(=O)c3cccc(Br)c3)nc1-2`, with inactive: -20%.
